The results in this text go back to PubChem BioAssay AID1159614 (National Center for Advancing Translational Sciences (NCATS), 2016).

Among all 45,000 compounds or so, about 65 (0.1%) were called active. The call rests on the fitted dose curve; in most records, active means well fitted activation curve with a large enough effect; inconclusive means small, poorly fitted or top-dose-only effect; inactive means no such curve, though single readings can be large or run the other way. The list shows a part of the results.

UniProt P54803, sequence (P54803 whole entry, looked up): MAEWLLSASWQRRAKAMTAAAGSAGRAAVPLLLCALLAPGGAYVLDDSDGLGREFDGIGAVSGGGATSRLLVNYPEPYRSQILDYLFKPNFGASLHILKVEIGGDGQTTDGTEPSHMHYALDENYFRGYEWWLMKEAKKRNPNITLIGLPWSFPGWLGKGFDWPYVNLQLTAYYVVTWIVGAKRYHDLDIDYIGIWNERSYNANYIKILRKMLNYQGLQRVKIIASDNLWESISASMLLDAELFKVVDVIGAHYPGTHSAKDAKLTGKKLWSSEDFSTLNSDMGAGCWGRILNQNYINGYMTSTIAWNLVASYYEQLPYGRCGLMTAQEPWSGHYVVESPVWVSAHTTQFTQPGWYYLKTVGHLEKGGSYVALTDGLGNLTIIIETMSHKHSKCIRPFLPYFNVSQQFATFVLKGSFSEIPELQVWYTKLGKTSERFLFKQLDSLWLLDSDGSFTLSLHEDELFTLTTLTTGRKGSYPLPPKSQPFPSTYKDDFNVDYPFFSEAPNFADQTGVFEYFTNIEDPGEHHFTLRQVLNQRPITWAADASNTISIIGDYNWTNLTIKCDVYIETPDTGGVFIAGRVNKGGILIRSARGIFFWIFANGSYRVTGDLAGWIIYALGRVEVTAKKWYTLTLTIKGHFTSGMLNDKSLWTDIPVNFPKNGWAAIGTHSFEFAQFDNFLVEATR

The assay has as its target Galactocerebrosidase (Homo sapiens) (UniProt P54803). As to the kind of experiment: A Novel Cell-Based Assay to Identify Small Molecules for B -Galactocerebrosidase. Further: 0% is about no effect; nearly all actives have a fitted effect of over 65% in size. To be noted: 145M-Twi-hGALC-G270D cells, HMU-beta-Gal fluorescence, 48 h; series mostly up to 57.5 µM; activation: at the top concentration. In a few lines:
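qHTS, 1536-well; 145M-Twi-hGALC-G270D cells (WT line also made) in DMEM/F12 + 10% FBS; compound incubation on live cells; HMU-β-gal 0.1 mM final, pH 5.2, NaTC; carbonate stop; fluorescence increase = enhanced residual activity.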
For `Cc1ccn2c(=O)cc(COc3cccc(NC(=O)Nc4cccc(Cl)c4C)c3)nc2c1`, the “activation” value is inactive: -3.25%.

`COc1ccccc1NC(=O)C1=C(C)Nc2nc3ccccc3n2C1c1cccc(OC)c1OC` (stereo not drawn): the “activation” value is inactive: -27%.

Consider `COc1ccc(-c2cc(C(F)(F)F)nc(SCC(=O)NCC(C)C)n2)cc1OC`, for which the “activation” value was inactive: -27.2%.

With `Cc1ccc(CNC(=O)c2ccc(CS(=O)Cc3cccc(Cl)c3)o2)cc1` (stereo not drawn), the “activation” value was inactive: -27.2%.

Consider `Cc1ccc(-c2cn3c(n2)sc2cc(C(=O)NCCCc4ccccc4)ccc23)c(C)c1`, for which the “activation” value is inactive: -9.71%.

Consider `CC1CCCN(S(=O)(=O)c2ccc3c(c2)c(=O)nc2ccccn23)C1` (stereo not drawn), for which the “activation” value was inactive: -12%.

Consider `CCCCN(CCCNC(=O)c1cc(Nc2ccc(OC)c(OC)c2)nc2ccccc12)c1ccccc1`, for which the “activation” value was inactive: -9.31%.

With `CCOc1ccc(CNCc2c(C(=O)O)c(C)n(Cc3c(F)cccc3Cl)c2C)cc1OC`, the “activation” value is inactive: -6.7%.

Consider `CC(CCc1ccccc1)NC(=O)Cn1c(=O)nc(-c2ccccc2)c2ccccc21` (stereo not drawn), for which the “activation” value is inactive: -1.73%.

On to `CCOC(=O)c1cnc2c(C)c(Cl)ccc2c1Nc1ccc(N2CCOCC2)cc1`, for which the “activation” value was inactive: -4.77%.

Take `CCc1cccc(NC(=O)CN(C)S(=O)(=O)c2ccc3c(c2)CCCN3C(C)=O)c1`: the “activation” value was inactive: 4.86%.

With `Cc1cc(C)c(S(=O)(=O)NCC(c2ccc(N(C)C)cc2)N2CCOCC2)c(C)c1` (stereo not drawn), the “activation” value was inactive: -10.8%.

In the case of `Cc1ccc2oc(=O)n(CCCOc3ccccc3Cl)c2c1`, the “activation” value is inactive: -21.9%.

With `COc1ccccc1-c1noc(-c2ccc(NCC3CCCO3)c([N+](=O)[O-])c2)n1` (stereo not drawn), the “activation” value was inactive: 8.51%.

With `CCCCN(C)CCNC(=O)CN1C(=O)CSc2ccc(S(=O)(=O)N3CCOCC3)cc21`, the “activation” value is inactive: -13.6%.

`CCc1nn2c(=O)c(S(=O)(=O)Nc3ccc(Cl)cc3)c(C)nc2s1`: the “activation” value was inactive: -21%.

With `Cc1ccccc1Nc1c(-c2cccnc2)nc2ccc(Cl)cn12`, the “activation” value is inactive: -7.71%.

`CC(=O)O[C@@]12CO[C@@H]1C[C@H](O)[C@@]1(C)C(=O)[C@H](O)C3=C(C)[C@@H](OC(=O)[C@H](O)[C@@H](NC(=O)OC(C)(C)C)c4ccccc4)C[C@@](O)([C@@H](OC(=O)c4ccccc4)[C@H]21)C3(C)C`: the “activation” value was inactive: -10.4%.

With `COc1cccc(NC(=O)CN(CCc2ccccc2)S(=O)(=O)c2ccc(Cl)cc2)c1`, the “activation” value is inactive: -9.7%.

With `Cc1nc2ccccc2n1CCc1nc2c3ccccc3nc(SCc3ccc(C#N)cc3)n2n1`, the “activation” value was inactive: -19.4%.

Consider `O=c1c(NCc2cccs2)nccn1-c1ccc(F)cc1`, for which the “activation” value is inactive: -20.8%.

For `CCOc1ccc(NS(=O)(=O)c2ccc3[nH]c4c(c3c2)CCCCC4)cc1`, the “activation” value was inactive: -17.9%.

For `O=C(COCc1cc(-c2ccc(F)cc2)on1)Nc1cc(F)ccc1F`, the “activation” value was inactive: 1.97%.

As to `O=S(=O)(NCc1nc2cccnc2n1Cc1ccccc1Cl)c1ccc2c(c1)CCCC2`, the “activation” value was inactive: -6.83%.

Turning to `Cc1cccc(-c2nc3c4ccccc4nc(NCCc4ccccc4)n3n2)c1`, the “activation” value is inactive: -1.74%.

With `O=C(CCn1cccn1)Nc1ccc(Br)cc1F`, the “activation” value is inactive: -17.9%.

Regarding `COc1ccc(CNC(=O)c2ccc3c(c2)N(Cc2c(F)cccc2Cl)C(=O)CS3)cc1`, the “activation” value is inactive: -11.6%.

In the case of `CCOC(=O)CSc1nc2ccc(NC(=O)c3cccc(F)c3)cc2s1`, the “activation” value is inactive: 6.97%.

`CCc1cc2c(cc3c(=O)n(CCCC(=O)NCc4cccc(Cl)c4)ncn32)s1`: the “activation” value is inactive: -3.71%.

Take `O=C(CN1C(=O)CCn2nc(-c3ccccc3)cc21)NCc1ccc(Cl)cc1`: the “activation” value was inactive: -6.32%.

As for `Cc1cccc(CCNC(=O)c2cc3c(=O)n(C)c4ccccc4c3n2C)c1`, the “activation” value is inactive: -10.4%.

For the molecule `COc1ccccc1N1CCN(C(=O)c2c(C)oc3ncn(C)c(=O)c23)CC1`, the “activation” value is inactive: -17.1%.

Turning to `O=C(CCSCc1ccccc1Cl)NCc1ccc(F)cc1Cl`, the “activation” value was inactive: -24.4%.

For `Cc1cc2c(n1-c1ccc(C(=O)NCc3ccccc3Cl)cc1)CCCC2`, the “activation” value was inactive: -19.5%.

For the molecule `CCN(CC)CCCNC(=O)Cc1csc2nc(-c3ccc(Cl)cc3)cn12`, the “activation” value was inactive: -4.92%.

For the molecule `CSc1ccc(CCNC(=O)CCc2c(C)nc3ncnn3c2C)cc1`, the “activation” value is inactive: -6.68%.

As to `CCOc1ccccc1C(=O)NC1(C(F)(F)F)C(=O)Nc2c1c(=O)[nH]c(=O)n2-c1ccc(F)cc1` (stereo not drawn), the “activation” value is inactive: -13.3%.

As for `COc1ccc(C(CC(=O)Nc2ccc(C(C)=O)cc2)N2Cc3ccccc3C2=O)cc1` (stereo not drawn), the “activation” value was inactive: -10.5%.

With `Cc1cccc2c1-c1sc(C(=O)N(C)c3cccc(Cl)c3)cc1CO2`, the “activation” value was inactive: -14.5%.

In the case of `CC(C)c1cnc2c(c1SCC(=O)NCc1ccccc1Cl)c(=O)n(C)c(=O)n2C`, the “activation” value is inactive: -4.13%.

In the case of `O=C(c1ccc2c(c1)N(Cc1cccc(F)c1)C(=O)c1ccccc1S2)N1CCCC1`, the “activation” value was inactive: -18.9%.

`Cc1cccc(N2CCN(C(=O)c3noc4c3COc3ccc(C)cc3-4)CC2C)c1` (stereo not drawn): the “activation” value was inactive: -0.994%.

With `Cc1ccc(CN2C(=O)c3ccccc3CC2(C)C(=O)NC2CCCCC2)cc1` (stereo not drawn), the “activation” value is inactive: -15.5%.

Regarding `COc1ccc(NC(=O)NC2COc3ccccc3C2)cc1Cl` (stereo not drawn), the “activation” value was inactive: -12.6%.

Consider `Cc1ccc(C(=O)Nc2cccc3cccnc23)cc1Cl`, for which the “activation” value was inactive: -14.1%.

Regarding `COc1cccc(OC)c1C(=O)NCCc1csc(-c2ccc(Cl)cc2)n1`, the “activation” value was inactive: -1.13%.

For `COC(=O)c1c(-c2cccs2)csc1NC(=O)COc1ccc(C)cc1`, the “activation” value was inactive: -7.81%.

`Cn1nnnc1SCCNCc1cc(Br)ccc1OCc1ccccc1Cl`: the “activation” value was inactive: -24.6%.

With `CN1C(=O)CC(c2ccccc2)C1=O` (stereo not drawn), the “activation” value was inactive: -4.44%.

With `COc1ccc(-c2csc(=Nc3ccccc3)n2CCO)cc1F`, the “activation” value was inactive: -11.4%.

For `CCOC(=O)c1c(Nc2ccc(OC)cc2)nnc(-c2ccccc2)c1-c1ccccc1`, the “activation” value is inactive: -10.9%.

Consider `CCOc1ccc(NC(=O)COc2ccc(S(=O)(=O)NC3CCCCC3)cc2)cc1`, for which the “activation” value is inactive: 0.919%.

For `CN1CCN(c2ncc3c(n2)CCN(Cc2ccc(Br)s2)C3)CC1`, the “activation” value is inactive: -12%.

On to `CCOC(=O)N1CCc2c(sc3c2c(=O)n(-c2ccc(Cl)cc2)c(=O)n3CC(C)C)C1`, for which the “activation” value is inactive: -0.349%.

On to `COc1ccc(Nc2c(-c3cccc(O)c3)nc3cnccn23)cc1`, for which the “activation” value is inactive: -12.1%.

In the case of `CN(C)CCN(Cc1ccccc1)c1ccccn1`, the “activation” value is inactive: -17.4%.

For `Cc1ccc(Cl)cc1Nc1nn2c(=O)c3ccc(C(=O)NCc4ccc(F)cc4)cc3nc2s1`, the “activation” value is inactive: -8.6%.

Consider `Cc1cccc(-c2nc3scc(CCNS(=O)(=O)c4ccc5c(c4)OCCO5)n3n2)c1`, for which the “activation” value was inactive: -15.5%.

On to `Cc1cccn2c(=O)c(C(=O)NCc3cccc(F)c3)cnc12`, for which the “activation” value is inactive: 0.271%.

Consider `CCOc1ccc(CNC(=O)Cc2ccc(NC(=O)N3CCSc4ncccc43)cc2)cc1`, for which the “activation” value is inactive: -12.8%.

For `Cn1c(=O)c2sccc2n2c(CCC(=O)NCc3ccc(Cl)cc3)nnc12`, the “activation” value is inactive: -14.8%.

Regarding `CC(=O)c1ccc(N2CCN(C(=O)C3CCN(S(=O)(=O)c4cn(C)cn4)CC3)CC2)cc1`, the “activation” value is inactive: -9.54%.

Regarding `CCCOc1ccc(-c2nc(SCC(=O)c3ccc(Cl)cc3)n[nH]2)cc1`, the “activation” value was inactive: -12.9%.
